# Experimental data from article PMC4336329 (PLoS ONE, 2015).
# In all, about 310,000 compounds went through this assay and about 14,000 (4.5%) showed an effect of 50% or more. Effects have a minus sign here. This is one part of the list.
# Target: human ether-à-go-go-related gene (hERG) potassium channel (human, UniProt Q12809)
# Assay: primary screen, population patch clamp on CHO cells stably expressing hERG
# 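Further: peak tail current of the secondary pulse compared with the same well before compound.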
# human ether-à-go-go-related gene (hERG) potassium channel, sequence (Q12809 whole entry, looked up): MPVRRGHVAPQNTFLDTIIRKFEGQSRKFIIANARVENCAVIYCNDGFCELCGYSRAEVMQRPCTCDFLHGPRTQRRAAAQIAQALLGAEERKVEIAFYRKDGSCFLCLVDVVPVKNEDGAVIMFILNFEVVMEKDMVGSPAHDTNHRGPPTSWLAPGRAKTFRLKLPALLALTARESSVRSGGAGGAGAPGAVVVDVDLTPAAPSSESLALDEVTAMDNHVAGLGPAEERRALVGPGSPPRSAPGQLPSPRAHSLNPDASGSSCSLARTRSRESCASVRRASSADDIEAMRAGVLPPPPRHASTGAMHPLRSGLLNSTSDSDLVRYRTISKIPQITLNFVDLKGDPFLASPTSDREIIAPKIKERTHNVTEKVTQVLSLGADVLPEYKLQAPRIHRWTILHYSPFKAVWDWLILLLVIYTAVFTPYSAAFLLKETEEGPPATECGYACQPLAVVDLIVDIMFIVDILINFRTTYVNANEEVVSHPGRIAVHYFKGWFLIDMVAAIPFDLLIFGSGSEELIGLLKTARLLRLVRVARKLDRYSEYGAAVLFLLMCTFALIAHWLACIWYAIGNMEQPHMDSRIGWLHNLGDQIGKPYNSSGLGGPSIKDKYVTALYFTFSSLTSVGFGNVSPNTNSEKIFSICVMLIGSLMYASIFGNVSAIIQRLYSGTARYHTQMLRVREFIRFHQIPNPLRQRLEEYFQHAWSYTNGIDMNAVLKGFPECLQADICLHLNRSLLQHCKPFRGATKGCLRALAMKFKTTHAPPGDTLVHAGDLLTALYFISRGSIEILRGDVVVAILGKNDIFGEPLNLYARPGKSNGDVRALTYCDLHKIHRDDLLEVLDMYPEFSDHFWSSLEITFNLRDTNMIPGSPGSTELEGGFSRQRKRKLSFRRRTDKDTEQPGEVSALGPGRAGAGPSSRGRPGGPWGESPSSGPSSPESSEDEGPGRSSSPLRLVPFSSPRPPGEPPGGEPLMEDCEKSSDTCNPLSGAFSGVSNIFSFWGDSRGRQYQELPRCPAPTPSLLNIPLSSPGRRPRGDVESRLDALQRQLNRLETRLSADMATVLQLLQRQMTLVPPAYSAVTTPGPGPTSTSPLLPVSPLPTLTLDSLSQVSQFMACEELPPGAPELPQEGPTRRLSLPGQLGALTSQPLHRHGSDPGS
row,SMILES,"hERG current change (%, negative = inhibition) at 10uM"
1,C=CCSc1ccccc1C(=O)Nc1ncn[nH]1,15.5%
2,N#C/C(=C\c1ccncc1)C(N)=O,10.3%
3,CC(C)c1ccc(NC(=O)C2C3C=CC4(O3)C2C(=O)N(CCCN2CCOCC2)C4C(=O)NC2CCCCC2)cc1 (stereo not drawn),19.9%
4,CCN(CC(=O)Nc1cccc(OC)c1)C(=O)c1ccco1,22.6%
5,O=C(CSc1nnc(CCCN2C(=O)c3cccc4cccc(c34)C2=O)n1-c1ccccc1)N1CCN(CCO)CC1,-13.5%
6,CCCCN(CC)C(=O)C1CCCN(S(=O)(=O)c2cccc3nsnc23)C1 (stereo not drawn),2.48%
7,Cc1ccc(-c2nn(-c3ccccc3)cc2/C=C2\SC(=S)N(CC(=O)O)C2=O)cc1,1.27%
8,CCCC(=O)Nc1ccccc1NC(=O)c1ccc(OCC)c(OCC)c1,8.15%
9,CCOP(=O)(OCC)C(NC(=O)c1ccc(OC)c(OC)c1)c1ccccc1 (stereo not drawn),9.71%
10,CCOC(=O)C1=C(CC)Nc2ccccc2N=C1NC(=O)c1oc2ccccc2c1C,12.6%
11,CC(C)CCOc1cccc(OCC(=O)Nc2ccncc2)c1,11.3%
12,CCOC(=O)c1nnn2c1nc(N(CC)CC)c1ccccc12,-6.95%
13,CCCOc1ccc(/C=C/C(=O)Nc2ccc([N+](=O)[O-])cc2C)cc1,23.3%
14,O=C(c1cccc(S(=O)(=O)N2CCOCC2)c1)N1CCN(c2ccc(F)cc2)CC1,-33.6%
15,C/C(N)=C(\C#N)C(=O)NCc1ccccn1,10.1%
16,Cc1ccc(C(=O)NNC(=O)CSc2nnc3c(n2)[nH]c2ccc(C)cc23)cc1,1.79%
17,CC(=O)NC(=O)c1cnn(-c2ccccc2)c1N,9.47%
18,Nc1ccccc1Nc1c(F)c(F)nc(F)c1Cl,20.1%
19,CCOC(CCn1c(SCc2cccc([N+](=O)[O-])c2)nc2ccccc2c1=O)OCC,-14.6%
20,O=C(CSc1ccc(-c2ccc(Cl)cc2)nn1)Nc1ccc2c(c1)OCCO2,21.6%
21,COC(=O)C1=C(C)N(CCCC(=O)O)C(=O)NC1c1ccccc1OS(=O)(=O)c1ccc([N+](=O)[O-])cc1 (stereo not drawn),7.31%
22,c1ccc2c(c1)nnn2-c1ncnc2sccc12,18.1%
23,C[C@@H]1NC(=O)[C@H](CCC(N)=O)NC(=O)c2cc([N+](=O)[O-])cc(I)c2NCCC[C@@H](C(N)=O)NC1=O,-8.81%
24,Cc1ccc(/C=C2\SC(=S)N(C(Cc3ccccc3)C(=O)O)C2=O)cc1 (stereo not drawn),14.7%
25,CCCOC(=O)C1=C(C)N(C)C(=O)NC1c1cc2c(cc1[N+](=O)[O-])OCO2 (stereo not drawn),12.2%
26,Cc1ccc(NC(=O)c2ccc(Cl)c(NC(=O)c3cccs3)c2)cc1,-12.5%
27,Cc1cccc(Cn2cc(C=O)c3ccccc32)c1,12.2%

row,SMILES,"hERG current change (%, negative = inhibition) at 10uM"
1,Cc1ccc(-c2nc(N/N=C/c3ccccc3[N+](=O)[O-])c3ccccc3n2)cc1,-2.26%
2,CSCCC1(C(=O)O)NC(c2ccccc2O)C2C(=O)N(C(C)C)C(=O)C21 (stereo not drawn),24.7%
3,COc1ccc(C(=O)NN2C(=O)C3C(c4ccccc4)C=CC(c4ccccc4)C3C2=O)cc1 (stereo not drawn),-4.38%
4,Cc1nn(C)cc1C1C2=C(CC(C)(C)CC2=O)OC2=C1C(=O)CC(C)(C)C2,-31.5%
5,OCC[C@H]1C[C@H](O)[C@@H](O)[C@]2(Cc3ccccc3O2)O1,-17.1%
6,COc1ccc(C2C(C(=O)O)c3ccccc3C(=O)N2Cc2ccco2)cc1 (stereo not drawn),12.2%
7,CCCCNc1nc2c(c(=O)[nH]c(=O)n2C)n1CCOc1ccccc1,3.6%
8,O=C(NCc1ccccc1)C(c1ccncc1)N(C(=O)c1ccccn1)c1ccccc1 (stereo not drawn),7.19%
9,COc1ccc2ccc(O)c(CN3CC=C(c4ccccc4)CC3)c2c1,39.4%
10,Br.Cc1ccc(C)c(C2=CSC3=NCCN23)c1,-14.1%
11,COc1ccc(C(c2nnnn2CS(=O)(=O)c2ccc(C)cc2)N2CCN(c3ncccn3)CC2)cc1 (stereo not drawn),2.69%
12,Cc1cc(=O)cc(C)n1-c1ccc2c(c1)nc(C)n2-c1ccccc1,-14.7%
13,CCCNS(=O)(=O)c1ccc(OCC(=O)NCc2ccco2)cc1,-44.5%
14,COc1ccccc1-n1cnnc1SCC(=O)Nc1cc(C(C)(C)C)nn1-c1ccccc1,-21%
15,O=C(/C=C/c1ccc(F)cc1)N1CCN(Cc2ccccc2)CC1,-40.6%
16,CC(=O)Nc1ccc(S(=O)(=O)Nc2nc3ccccc3nc2Cl)cc1,15.9%
17,C=CCNc1nc(Cl)nc(Nc2ccc(OCC)cc2)n1,-4.95%
18,NC(=O)c1ccccc1NC(=O)/C=C/C(=O)O,16.6%
19,CCCc1cc(=O)oc2cc(Oc3ncccn3)ccc12,-21.3%
20,COc1ccc(S(=O)(=O)NCc2ccc(C(=O)N3CCc4ccccc4C3)cc2)cc1,-16.1%
21,Cn1cccc1CNC(=O)Nc1ccc(Cl)cc1,-24.4%
22,CN(C)S(=O)(=O)c1ccc(C(=O)Nc2cc3c(cc2C(=O)O)OCCCO3)cc1,3.73%
23,CC(C)(C)c1cc[n+](/C(C(=S)NC2CC2)=C(/[O-])c2ccc(Cl)s2)cc1,-36.6%
24,O=C(NCCCO)C(=O)NCc1ccccn1,23.3%
25,COc1ccccc1NC(=O)CSc1ccc(-c2ccc(-n3cccn3)cc2)nn1,14.5%
26,Cc1onc(-c2c(F)cccc2Cl)c1C(=O)c1ccccc1O,-0.367%
27,CC(=O)N(Cc1ccccc1)Cc1nc2sc(C)c(C)c2c(=O)[nH]1,12.5%
